Screen size: about 310,000 compounds; about 14,000 (4.5%) showed an effect of 50% or more. The effect is printed as a negative number. This is one part of the list.
biological target: human ether-à-go-go-related gene (hERG) potassium channel (human, UniProt Q12809); test: primary screen, population patch clamp on CHO cells stably expressing hERG
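Also: peak tail current of the secondary pulse compared with the same well before compound.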

Chain of human ether-à-go-go-related gene (hERG) potassium channel (Q12809 whole entry, looked up): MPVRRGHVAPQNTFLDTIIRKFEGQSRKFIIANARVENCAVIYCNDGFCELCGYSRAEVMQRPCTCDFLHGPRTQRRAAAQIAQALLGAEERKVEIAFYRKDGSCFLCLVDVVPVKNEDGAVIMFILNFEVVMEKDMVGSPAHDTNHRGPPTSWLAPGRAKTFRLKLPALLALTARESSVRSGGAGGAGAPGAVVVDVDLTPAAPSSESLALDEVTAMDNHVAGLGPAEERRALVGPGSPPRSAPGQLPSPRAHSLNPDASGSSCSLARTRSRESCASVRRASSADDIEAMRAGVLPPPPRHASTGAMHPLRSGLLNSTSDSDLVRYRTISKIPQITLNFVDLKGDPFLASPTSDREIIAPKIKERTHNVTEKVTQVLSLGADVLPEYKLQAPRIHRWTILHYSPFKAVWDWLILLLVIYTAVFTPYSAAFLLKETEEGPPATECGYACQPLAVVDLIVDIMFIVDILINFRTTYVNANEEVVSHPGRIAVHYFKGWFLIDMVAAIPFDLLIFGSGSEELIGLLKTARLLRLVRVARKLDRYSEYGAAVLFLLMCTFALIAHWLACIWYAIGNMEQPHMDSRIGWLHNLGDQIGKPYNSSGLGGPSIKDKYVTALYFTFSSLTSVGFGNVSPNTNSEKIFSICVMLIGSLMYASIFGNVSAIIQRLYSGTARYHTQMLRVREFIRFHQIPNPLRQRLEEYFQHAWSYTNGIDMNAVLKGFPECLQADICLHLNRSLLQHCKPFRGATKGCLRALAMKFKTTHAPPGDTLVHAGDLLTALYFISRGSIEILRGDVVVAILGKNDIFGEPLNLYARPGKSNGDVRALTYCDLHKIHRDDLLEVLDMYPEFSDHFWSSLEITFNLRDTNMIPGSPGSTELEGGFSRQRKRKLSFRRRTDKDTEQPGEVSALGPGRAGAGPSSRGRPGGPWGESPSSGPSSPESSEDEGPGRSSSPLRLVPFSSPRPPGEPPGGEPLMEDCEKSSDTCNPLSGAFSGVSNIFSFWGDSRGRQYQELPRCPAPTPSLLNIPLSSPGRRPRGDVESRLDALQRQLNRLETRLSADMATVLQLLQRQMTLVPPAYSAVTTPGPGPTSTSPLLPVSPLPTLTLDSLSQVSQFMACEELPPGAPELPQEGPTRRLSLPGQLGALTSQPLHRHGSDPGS

| SMILES | hERG current change (%, negative = inhibition) at 10uM |
| --- | --- |
| Cc1cc(NC(=O)c2cc(C(C)(C)C)oc2C)no1 | 11.7% |
| COc1ccc(CCNC(=O)c2c(C)nn(CC(C)C)c2Cl)cc1 | 12% |
| CC(C)CN(CC(C)C)C(=O)C12CCC(C)(C(=O)C1)C2(C)C (stereo not shown) | -0.0273% |
| Clc1cccc2sc(N3CCCCC3)nc12 | 10.5% |
| CCOC(=O)N1CCC(NC(=O)c2oc3c(C)c(C)ccc3c2C)CC1 | -32.2% |
| CCn1c(/C=C/c2ccccc2F)nc2ccccc2c1=O | 14.6% |
| CCOC(=O)NCc1cc(-c2nn(C)c(=O)c3ccccc23)ccc1C | -12.9% |
| COc1ccc(Oc2nc3c(C)cccn3c(=O)c2/C=C(\C#N)C(N)=O)cc1 | -2.18% |
| CCn1cc(C(=O)N2CCCC(C(=O)c3ccc4ccccc4c3)C2)cn1 (stereo not shown) | -18.1% |
| Cc1sc2ncnc(N3CCC(C(=O)Nc4ccc(F)cc4Cl)CC3)c2c1C | -34% |
| Cc1cc(C(=O)CCC(=O)N2CCN(S(=O)(=O)c3ccccc3)CC2)c(C)s1 | -27.3% |
| Cc1ccc(-c2nc(CN3CCN(c4cnccn4)CC3)c(C)o2)o1 | 1.87% |
| Cc1cccc(OCC(=O)Nc2ccc3oc(=O)ccc3c2)c1 | 8.55% |
| O=C1OCCN/C1=C\C(=O)c1ccc(Cl)cc1 | 14.5% |
| O=C(NC1CCCC1)c1cc(S(=O)(=O)N2CCCC2)ccc1Cl | 2.51% |
| O=C(c1cccc(F)c1)N1CCCC(C(=O)N2CCCCCC2)C1 (stereo not shown) | 11.2% |
| CCN(Cc1ccccc1)C(=O)Cn1c(=O)n(CC(=O)NCc2ccco2)c(=O)c2sccc21 | -15% |
| CCCCC(=O)Nc1cccc(NC(=O)c2ccc3c(c2)OCO3)c1 | 6.43% |
| Cc1ccc(NC(=O)c2cc(NC(=O)c3ccccc3C(=O)O)ccc2N2CCCCC2)cc1 | 32.8% |
| COc1ccc(C(=O)Nc2ccc(NC(=O)c3ccccc3)cc2)cc1S(=O)(=O)N1CCOCC1 | 16.6% |
| C=CCn1c(=O)c2ccc(C(=O)NCc3ccccc3)cc2n(Cc2ccc(Cl)cc2)c1=O | 16.1% |
| O=C(CCn1cccc1)NCc1ccc(Cl)cc1 | 0.828% |

| SMILES | hERG current change (%, negative = inhibition) at 10uM |
| --- | --- |
| CC1Cc2ccccc2N1C(=O)COC(=O)Cc1ccc(F)cc1 (stereo not shown) | -13.9% |
| Cc1nnn(-c2nonc2N)c1C(=O)N/N=C/c1cccc2ccccc12 | -7.26% |
| COc1ccc(/C(C)=N/NC(=O)c2ccccc2N)cc1 | -6.35% |
| COc1ccnc(CSC(N)=Nc2cccc(C(F)(F)F)c2)c1 | -12.5% |
| Br.O=C(CN(Cc1ccccc1)C1=NCCS1)c1ccccc1 | -28.5% |
| O=C(COC(=O)c1ccccc1)Nc1cccc(S(=O)(=O)NC2=NCCCCC2)c1 | 10.4% |
| CN(C)CCCNCCCNC(=O)/C(=N\O)c1ccccc1 | 6.64% |
| CCN(CC)S(=O)(=O)c1cc(NC(=O)c2cc(-c3ccccn3)nc3ccccc23)ccc1C | 22.1% |
| O=C(c1cn(-c2ccccc2)nc1-c1ccncc1)N1CCCCC1 | -16.6% |
| Cc1ccccc1C(=O)NCCNC(=O)c1cnccn1 | -1.72% |
| c1ccc(-c2nnnn2CCOCCn2nnnc2-c2ccccc2)cc1 | 2.32% |
| O=C1CNC(=O)N1CC(=O)N1CCCc2ccccc21 | 2.53% |
| Cc1nc(NN)c2c3c(sc2n1)COC(C)(C)C3 | 15.3% |
| CC(OC(=O)CCc1cc(C(C)(C)C)c(O)c(C(C)(C)C)c1)C(=O)NC1CC1 (stereo not shown) | -33.9% |
| NC(=O)CSc1nnc(-c2cnccn2)n1Cc1ccco1 | 7.06% |
| CCOc1ccc(S(=O)(=O)N(CC(=O)NCc2cccnc2)c2ccc(C)cc2)cc1 | -66.9% |
| O=C(Cc1ccc2c(c1)OCCO2)N1CCN(S(=O)(=O)c2ccccc2C(F)(F)F)CC1 | -18.1% |
| CCN=C(NCC)SC1CC(=O)N(c2ccc(OCC)cc2)C1=O (stereo not shown) | -6.72% |
| O=C(COc1ccc(S(=O)(=O)NC2CCCC2)cc1)N1CCCCCC1 | 13.3% |
| C=CC(=O)NC(NC(=O)C=C)c1ccc(Br)cc1 | -0.848% |
| CCCCn1ccnc1C | 6.82% |
| CCOC(=O)C(=CNc1nc2ccc(C(=O)OCC)cc2s1)C(=O)OCC | 24.3% |

| SMILES | hERG current change (%, negative = inhibition) at 10uM |
| --- | --- |
| COc1ccccc1-c1nnc(SCC(=O)Nc2c(Cl)cccc2Cl)o1 | -13.3% |
| CCC(C)[C@@H](C(=O)N1CCNCC1)n1cc(CCCN=C(N)N)nn1.Cl (stereo partly shown) | 11.3% |
| CCOC(=O)C1CCCN(S(=O)(=O)c2ccc3c4c(cccc24)C(=O)N3CC)C1 (stereo not shown) | -63.5% |
| Cc1ccc(Nc2nc(C(=O)N3CCC(C(=O)N4CCN(C)CC4)CC3)cs2)cc1 | 9.59% |
| O=C(CCn1cccc1)NC1CCCc2ccccc21 (stereo not shown) | 4.95% |
| O=C1CC2(CCCCC2)Oc2ccc(O)cc21 | -11.8% |
| CCN(CCn1cccn1)C(=O)c1cc(COc2ccc(F)cc2Cl)on1 | -15.4% |
| O=C(CSc1nnc(-c2cccnc2)n1C1CCCCC1)NC1CCCC1 | -8.3% |
| CCOC(=O)c1cc(-c2cccc(C(F)(F)F)c2)nc2nc(SC)[nH]c(=O)c12 | -33.8% |
| CCOc1ccccc1CN1CCNC(=O)C1CC(=O)N(C)CCC1CCOCC1 (stereo not shown) | 19.2% |
| Cc1ccc(NC(=O)c2oc3ccccc3c2NC(=O)C2CC2)cc1 | -4.63% |
| O=C(O)c1ccc2c(c1)C(=O)/C(=C\c1ccco1)C2=O | 2.95% |
| Cc1cc(C)c(O)c(-c2cc(C(=O)Nc3ccc(S(=O)(=O)N4CCOCC4)cc3)[nH]n2)c1 | -3.07% |
| O=C(CCN1C(=O)c2ccccc2C1=O)NC(=S)Nc1ccccc1 | 3.56% |
| COc1ccc(NC(=O)N2CCCc3ccccc32)cc1OC | 12.3% |
| CCN(CC)S(=O)(=O)c1ccc(N2CCOCC2)c(NC(=O)Cc2ccccc2)c1 | -36.2% |
| CCc1nnc(NC(=O)CSc2nnc(-c3ccc(O)cc3)n2C)s1 | 13.2% |
| CCSCc1nnc(SCC(=O)Nc2nc3ccccc3s2)n1C | -11.1% |
| CCOC(=O)C1=C(C)NC(=O)/C1=C\N(C)C | 19% |
| COC(=O)[C@@H]1[C@@H](C)N(Cc2ccccc2)C(=O)N[C@H]1c1cccc(C(F)(F)F)c1 | 2.85% |
| O=C(Oc1c(Br)cc([N+](=O)[O-])cc1Br)c1cccnc1 | 16.7% |
| CCC(C)c1ccc(O)c(N)c1 (stereo not shown) | -2.96% |

| SMILES | hERG current change (%, negative = inhibition) at 10uM |
| --- | --- |
| CCC(=O)c1ccc(OCC(O)CN2CCN(S(=O)(=O)c3ccc(NC(C)=O)cc3)CC2)cc1 (stereo not shown) | -20.5% |
| O=C(Nc1ccc(F)cc1)Nc1ccc(Oc2ncnc3cc(Cl)ccc23)nc1 | 10.2% |
| Cc1csc(NC(C)c2nc3cc(C(F)(F)F)ccc3n2CCCO)n1 (stereo not shown) | -26.7% |
| COc1ccc(-c2cc(C3CC3)nc3sc(C#N)c(N)c23)cc1 | 0.566% |
| O=C(c1ccc2c(c1)ncn2C1CCCCCC1)N1CCC2(CC1)OCCO2 | -2.37% |
| O=C(c1ccc(Cl)cc1)c1cnc(Nc2ccccc2Cl)s1 | -1.11% |
| O=C(COc1cc(=O)n2c(n1)SCCC2)c1ccccc1 | 4.09% |
| CCOCCc1nnc(N)s1 | 2.31% |
| O=C(Nc1ccccc1N1CCCC1)C1CCN(S(=O)(=O)c2ccc(F)cc2)CC1 | -0.0241% |
| O=C(NC(Cc1ccccc1)C(=O)N1CCN(S(=O)(=O)c2ccccc2)CC1)c1ccccc1 (stereo not shown) | -8.87% |
| CCc1noc(C)c1C(=O)N1CCCC(C(=O)c2cc(F)ccc2OC)C1 (stereo not shown) | 18.6% |
| NC(=O)Cn1c(=O)n(CCc2ccccc2)c(=O)c2c3c(sc21)CCCC3 | -15% |
| CCCCc1cc(=O)oc2cc(O)cc(O)c12 | 2.39% |
| O=C(CN1C(=O)NC2(CCCC2)C1=O)NNC(=O)c1ccccc1F | 14.2% |
| O=C(O)c1cc2nc3c(c(C(F)(F)F)n2n1)CCCC3 | 19.4% |
| CN1C(=O)C(C)(C)c2cc(S(=O)(=O)N3CCCC(C(=O)NCc4ccc(Cl)cc4)C3)ccc21 (stereo not shown) | -8.2% |
| O=C(Cn1nnc(-c2ccc(Cl)cc2)n1)NCc1ccco1 | 16.7% |
| CN1C(=S)NC(C)(C)CC1(C)c1ccc(O)cc1O (stereo not shown) | 13.3% |
| CN(C)NC(=O)c1ccsc1NC(=O)c1ccc(S(=O)(=O)N(C)C)cc1 | 2.78% |
| CSc1cccc(NC(=O)C2CCN(S(=O)(=O)c3ccc(F)cc3)CC2)c1 | 3.45% |
| C=C1CC[C@@]23CC[C@]4(C)[C@@](OC2=O)([C@@H]3C1)[C@H]1O[C@H]1C1[C@@]2(C)CC[C@H](O)C(C)(C)C2CC[C@]14C (stereo partly shown) | -12.1% |
| NS(=O)(=O)c1ccc(CCNC(=O)COC(=O)c2cc([N+](=O)[O-])ccc2N2CCOCC2)cc1 | 9.02% |
